Measurements taken from PubChem BioAssay (NCI).
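Assay format: 96-well plates, 48-hour exposure. The concentration for 50% growth inhibition is given as GI50. TGI is the concentration that stops growth completely.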

Test system: NCI-H322M lung
Assay: DTP human tumour cell line panel, 48 h

SMILES | GI50 | TGI
CC1=C2C(=C[C@@](C)(COCOCCCl)[C@@H]2O)C(=O)[C@](C)(O)C12CC2 | 0.789 µM | 4.33 µM
C=C1CC[C@@H]2[C@]3(C)COC(c4cn[nH]c4-c4ccc(C)cc4)O[C@@H]3CC[C@@]2(C)[C@@H]1C/C=C1/C(=O)OCC1O (stereo not given in full) | 32.5 µM | > 100 µM
Cc1ccccc1[C@H]1C(C(=O)c2ccc(Cl)cc2)C2(N[C@@H]1c1ccccc1)C(=O)Nc1ccccc12 (stereo not given in full) | 6.23 µM | 17.8 µM
Cc1nc(Nc2nc(C)c3ccc(OCCN4CCOCC4)cc3n2)[nH]c(=O)c1C | 3.17 µM | 17 µM
O=c1cc(-c2ccccc2)oc2cc(OCCCC[P+](c3ccccc3)(c3ccccc3)c3ccccc3)cc(O)c12 | 1.37 µM | 3.66 µM
